Test results taken from PubChem BioAssay (NCATS).
The inconclusive results got no clear call from the source; some entries with a clear call stand among them for comparison. Potencies of inconclusive entries are left out as doubtful fits. Activity calls are given as the source filed them. Calls follow the shape of the dose curve; as a rule, active = well fitted inhibition curve with a large enough effect; inconclusive = small, poorly fitted or top-dose-only effect; inactive = flat fitted curve, though single readings scatter.

Biological target: Tyrosyl-DNA phosphodiesterase 1 (Homo sapiens) (UniProt Q9NUW8)
Assay: Confirmation Assay for Inhibitors of Tyrosyl-DNA Phosphodiesterase (TDP1) (AID 489007); also: nearly all actives have a fitted effect of over 40% in size
Settings: recombinant human TDP1 enzymatic activity, dose-response
Method in brief: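 Recombinant E. coli-expressed Tdp1 (1 nM final) was preincubated with compounds 15 min at room temperature, then reacted 5 min with 15 nM 5'-biotin/3'-phosphotyrosine-FITC DNA substrate; cleavage read as loss of AlphaScreen signal (10 ug/ml beads, 10 min).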
Potency is read from the fitted curve at half-maximal effect; tags tell the direction and shape of the fitted curve.

UniProt Q9NUW8, sequence (Q9NUW8 whole entry, looked up): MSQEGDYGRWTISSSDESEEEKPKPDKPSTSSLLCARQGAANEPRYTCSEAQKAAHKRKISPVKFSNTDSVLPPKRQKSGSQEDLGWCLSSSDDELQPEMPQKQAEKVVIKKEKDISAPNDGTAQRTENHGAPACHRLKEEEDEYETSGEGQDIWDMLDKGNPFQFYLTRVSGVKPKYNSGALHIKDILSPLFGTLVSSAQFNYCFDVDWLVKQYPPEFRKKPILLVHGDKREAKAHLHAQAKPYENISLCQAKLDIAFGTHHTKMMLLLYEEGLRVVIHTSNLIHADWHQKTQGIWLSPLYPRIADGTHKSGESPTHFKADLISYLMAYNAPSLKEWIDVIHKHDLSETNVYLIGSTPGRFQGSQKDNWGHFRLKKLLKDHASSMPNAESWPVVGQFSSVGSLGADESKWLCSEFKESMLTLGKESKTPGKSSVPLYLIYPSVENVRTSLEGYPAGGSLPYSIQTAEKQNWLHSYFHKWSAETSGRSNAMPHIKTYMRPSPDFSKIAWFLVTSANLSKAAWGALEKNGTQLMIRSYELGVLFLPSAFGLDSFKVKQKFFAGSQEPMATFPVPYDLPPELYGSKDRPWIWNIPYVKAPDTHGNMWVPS

With `Cc1ccc(C(=O)Oc2ccc(C(=O)COC(=O)C3CC(=O)N(Cc4ccco4)C3)cc2)cc1` (stereo not drawn) as the compound, how does the Potency read?
Its Potency is inconclusive [inhibitor, partial curve].

How did the Potency turn out when `COC(=O)N/N=C/c1ccc(OC(=O)/C=C/c2ccco2)cc1` was run?
The Potency was inconclusive [inhibitor, single point].

With `O=C(CSc1nnc(-c2ccncc2)n1-c1ccc(F)cc1)NC(=O)NCc1ccco1` as the compound, how does the Potency read?
The Potency was inconclusive [inhibitor, partial curve, poor fit].

With `N#C/C(=C\c1ccc(-c2ccc(C(=O)O)cc2)o1)C(=O)NCC1CCCO1` (stereo not drawn) as the compound, how does the Potency read?
The Potency was inconclusive [inhibitor, partial curve].

For `O=C(Nc1nc2nc(-c3ccccc3)cc(=O)n2[nH]1)c1ccc(F)cc1`, which Potency is on record?
Its Potency is inconclusive [inhibitor, single point].

How did the Potency turn out when `CCSc1nnc(NC(=O)C2CC=CCC2C(=O)O)s1` (stereo not drawn) was run?
The Potency was inconclusive [inhibitor, partial curve].

For `CCc1nn2c(N)c(/C=C3\C=Nc4ccccc43)c(=O)nc2s1`, which Potency is on record?
The Potency was inconclusive [inhibitor, full curve].

`O=C(CSc1ccccn1)Nc1ccc2c(c1)C(=O)c1ccccc1C2=O` was tested. Which Potency did it give?
Its Potency is inconclusive [inhibitor, partial curve, poor fit].

With `COCc1cc(C)nc(N/N=C/c2ccc(-c3ccc(C(=O)O)c(Cl)c3)o2)c1C#N` as the compound, how does the Potency read?
Its Potency is inconclusive [inhibitor, full curve].

Which Potency does the source give for `O=C(N/N=C/c1cn(-c2ccccc2)nc1-c1ccc2c(c1)OCCO2)c1ccncc1` here?
The Potency was inconclusive [inhibitor, full curve].

With `Cc1ccc2nc(-c3ccncc3)cc(C(=O)Nc3ccc(OC(F)F)cc3)c2c1` as the compound, how does the Potency read?
Its Potency is active: 70.8 µM.

`O=C(CCCCCNC(=O)c1ccccc1)N/N=C/c1ccco1` was tested. Which Potency did it give?
Its Potency is inconclusive [inhibitor, partial curve].

`CCC(=O)Nc1nnc(Sc2ccc(N(C)C)cc2)s1` was tested. Which Potency did it give?
Its Potency is inconclusive [inhibitor, full curve].

With `COc1ccc2[nH]c(=O)cc(C(=O)O)c2c1` as the compound, how does the Potency read?
Its Potency is inconclusive [inhibitor, partial curve].

How did the Potency turn out when `CCN(CC)C(=O)N1CCN(C(=O)c2ccc(C)cn2)CC1` was run?
Its Potency is inconclusive [inhibitor, single point].

Which Potency does the source give for `Cc1cccc(N2CCN(S(=O)(=O)c3ccc4[nH]c(=O)c(=O)[nH]c4c3)CC2C)c1` (stereo not drawn) here?
Its Potency is active: 39.8 µM.

How did the Potency turn out when `COc1ccc(-c2nc3nc(C)cc(Nc4cccc(C(F)(F)F)c4)n3n2)cc1` was run?
Its Potency is inconclusive [inhibitor, partial curve].

With `N=C1C(c2nc3ccccc3c(=O)[nH]2)=C(O)CN1CCc1ccccc1` as the compound, how does the Potency read?
The Potency was inconclusive [inhibitor, single point].

With `Cc1cc(C)c(C#N)c(SCc2ccccc2)n1` as the compound, how does the Potency read?
The Potency was active: 112 µM.

For `COc1cccc(NS(=O)(=O)c2ccc3[nH]cc(C(=O)NCCc4ccc(C)cc4)c(=O)c3c2)c1`, which Potency is on record?
The Potency was inconclusive [inhibitor, single point].

For `Cc1cccc(NC(=O)CN2C(=O)S/C(=C\c3ccc(-c4cccc(C(=O)O)c4C)o3)C2=O)c1`, which Potency is on record?
Its Potency is inconclusive [inhibitor, single point].

With `c1ccc(N2N=C(c3cccs3)CC2c2ccco2)cc1` (stereo not drawn) as the compound, how does the Potency read?
The Potency was active: 112 µM.

`O=C(Nc1ccc(Cl)c(Cl)c1)Nc1nnc(-c2ccncc2)s1` was tested. Which Potency did it give?
Its Potency is inconclusive [inhibitor, partial curve].

How did the Potency turn out when `CN(C(=O)/C=C/c1ccco1)c1ccccc1C(=O)O` was run?
Its Potency is inconclusive [inhibitor, single point].

How did the Potency turn out when `Cc1cc(C)c2c(n1)sc1c(O)cc(=O)[nH]c12` was run?
The Potency was inconclusive [inhibitor, partial curve].

With `CCOc1cc(/C=N/N=C2/NC(=O)C(CC(=O)O)S2)ccc1OCc1ccc(Cl)cc1Cl` (stereo not drawn) as the compound, how does the Potency read?
Its Potency is inconclusive [inhibitor, single point].

With `COc1ccc(S(=O)(=O)N2Cc3ccccc3CC2C(=O)O)cc1` (stereo not drawn) as the compound, how does the Potency read?
The Potency was active: 12.6 µM.

How did the Potency turn out when `ClCc1csc(-c2ccccc2Cl)n1` was run?
The Potency was inconclusive [inhibitor, single point].
